Here are results for 86 sequences from the supplement of paper PMC3334620.

The full ranking holds about 33,000 sequences; the median of “E-score (-0.5 to 0.5)” is about -0.016, and the highest 2% start at about 0.32. The list shows a part of the results.

For the experiment, the target named is T1, Stp1 (UniProt B3LFK1).
T1 sequence: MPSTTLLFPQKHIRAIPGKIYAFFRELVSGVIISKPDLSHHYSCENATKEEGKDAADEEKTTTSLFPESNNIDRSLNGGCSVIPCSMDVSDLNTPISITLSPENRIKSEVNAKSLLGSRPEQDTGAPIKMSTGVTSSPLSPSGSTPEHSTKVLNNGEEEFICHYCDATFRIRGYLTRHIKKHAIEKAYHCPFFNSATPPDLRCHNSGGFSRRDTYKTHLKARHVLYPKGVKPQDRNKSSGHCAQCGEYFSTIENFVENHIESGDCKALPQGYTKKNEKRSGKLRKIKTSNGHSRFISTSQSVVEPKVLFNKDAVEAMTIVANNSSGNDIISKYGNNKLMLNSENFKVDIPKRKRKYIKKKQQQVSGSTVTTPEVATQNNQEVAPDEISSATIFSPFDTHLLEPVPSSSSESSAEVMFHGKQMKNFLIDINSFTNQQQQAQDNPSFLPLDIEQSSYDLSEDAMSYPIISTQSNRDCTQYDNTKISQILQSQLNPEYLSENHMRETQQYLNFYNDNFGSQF
Description: PBM E-score (8-mer binding enrichment) (E-score (-0.5 to 0.5)); higher = stronger / more preferred TF binding; most listed sequences are background and not binding sites. The settings on record: protein concentration: 200 nM; construct: GST-full length. An outline of the steps: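 PURExpress in vitro transcription/translation supplied GST-tagged yeast transcription factors, either full-length or DNA-binding domain. Applied at about 100-200 nM to universal all-10-mer Agilent arrays double-stranded by primer extension, the bound protein was detected with fluorescent anti-GST. E-scores, modified Wilcoxon-Mann-Whitney statistics, were given by the Universal PBM Analysis Suite to ungapped eight-base words pooled with their reverse complements after masliner normalisation.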
For the sequence CGCAACTC, the “PBM E-score” value is 0.0991. Turning to ACCCAGGT, the “PBM E-score” value was -0.344. In the case of AGGTTAGG, the “PBM E-score” value is -0.182.

For the sequence AACAAAAA, the “PBM E-score” value was found to be 0.171. With ATACTAGG the figure was -0.0795; with AAAAGGTG, -0.042. For ATCACGCG, the “PBM E-score” value is 0.211.

Regarding AAGGGCCC, the “PBM E-score” value is -0.16. Consider CCCCCGAG, for which the “PBM E-score” value was -0.358.

With AGGCCCGG, the “PBM E-score” value is -0.402. The same measure for AGAAGTTA: -0.0113; for ATCATGGG: -0.172. In the case of AGCGTACA, the “PBM E-score” value is -0.198. Regarding CCCAATCG, the “PBM E-score” value turned out to be 0.0048.

ACCAGCGT: the “PBM E-score” value was -0.17. The same measure for CACAAGCA: -0.0847; for GGGCAACA: 0.0862. Regarding ATTCAAGG, the “PBM E-score” value was -0.127.

On to AACTGAGA, for which the “PBM E-score” value is 0.115. The same measure for GATGATAA: 0.0557; for GTAGCACA: -0.0292; for GAGTGTAC: -0.0451.

With ACCAATCC, the “PBM E-score” value is -0.0607. With CCTTGAAC, the “PBM E-score” value is -0.0566. For the sequence GACACTGA, the “PBM E-score” value is -0.0306. The same measure for AAACTGGT: -0.0925. Consider AGCTGGAT, for which the “PBM E-score” value is -0.146. The same measure for CTTATACA: 0.182; for CTGATTTA: 0.137; for ACAAGGCC: -0.026. For CTCAAATA, the “PBM E-score” value stood at 0.176.

In the case of GGTAAGAC, the “PBM E-score” value is -0.108. With GATCATCC, the “PBM E-score” value was -0.201.

Turning to CCCGCACC, the “PBM E-score” value is -0.149. Turning to ACAATTAG, the “PBM E-score” value came out at 0.049. Consider AACCGGAT, for which the “PBM E-score” value was determined as 0.0305. ATGTTCCG: the “PBM E-score” value is -0.00592.

As to GGGGTTAA, the “PBM E-score” value is -0.289. Turning to CGGACGGA, the “PBM E-score” value was -0.0178. Take AGTGACGA: the “PBM E-score” value was -0.00928. AGAGACAT: the “PBM E-score” value was -0.187.

Regarding CACGTCCG, the “PBM E-score” value was -0.0661. With AGAGTTTA the figure was 0.21. With AGGTTTAA, the “PBM E-score” value was -0.0142. With GAGGGAGC the figure was -0.23; with CCGGCGAG, 0.0395; with AAAACGAG, 0.135. On to CGTCAGTA, for which the “PBM E-score” value was -0.11. Take ACTACAGA: the “PBM E-score” value was found to be 0.0159. ACTGCTTG: the “PBM E-score” value is -0.229.

For ATCCCCTG, the “PBM E-score” value is -0.269. With TGATATAA, the “PBM E-score” value was -0.0951. With TCCTTAGA the figure was -0.239; with AGACCTGA, -0.196. The same measure for CACGTCCA: -0.108.

With ATTAGTTA, the “PBM E-score” value was 0.209. With CAGCCGAC the figure was -0.0459; with ATGCTGAA, -0.132.

As to AAGCCATC, the “PBM E-score” value was determined as 0.159. With ATCGCGCA, the “PBM E-score” value is -0.0273. For the sequence GAACACAA, the “PBM E-score” value was -0.00776.

In the case of GCCTCTCC, the “PBM E-score” value stood at 0.0401. Take AATATTAG: the “PBM E-score” value stood at 0.134. As for GTCATCAC, the “PBM E-score” value was -0.0223.

For ACAGTAGG, the “PBM E-score” value is 0.0244.

With AGCGCACG, the “PBM E-score” value is 0.0865. Regarding AGGCGTGC, the “PBM E-score” value was 0.179. For TAGGGAGA, the “PBM E-score” value was -0.19. Consider ATTCAGTG, for which the “PBM E-score” value was -0.0101.

With AGACTATC, the “PBM E-score” value is 0.0712. On to GCCTCTTA, for which the “PBM E-score” value stood at 0.29. Regarding CTCTCAAC, the “PBM E-score” value is -0.0585. GTAACAAA: the “PBM E-score” value amounted to 0.219.

Regarding CACTGACC, the “PBM E-score” value was -0.318. On to AGTTCGAA, for which the “PBM E-score” value turned out to be 0.196. The same measure for CTTCGGTA: -0.157; for CGTGAACC: -0.19. In the case of AACACAGG, the “PBM E-score” value is -0.16. With AGAGGATG the figure was -0.251; with ACCTCACG, -0.0143; with GGTATCGA, 0.0389. With CTAATGCC the figure was 0.221; with ACCGTATC, 0.139; with CATATAAG, 0.118. The same measure for TCAGAGAA: -0.0777. Regarding AGACAAAT, the “PBM E-score” value worked out at 0.0977.
